Data taken from the antibiotic and cytotoxicity screens of Wong et al. (2023).
Some of the results follow.

system: HepG2; test: cytotoxicity call (relative viability < 0.9); settings: 10 µM

Compound	cytotoxicity call
C=CC(C1=CC(=O)C(OC)=CC1=O)c1ccc(OC)cc1 (centres undefined)	active
COc1ccc(S(=O)(=O)Nc2cccc3c2O[C@H](CN(C)S(C)(=O)=O)[C@H](C)CN([C@@H](C)CO)C3=O)cc1	inactive
C[C@H](CO)N1C[C@H](C)[C@@H](CN(C)C(=O)c2ccccc2)OCCCC[C@H](C)Oc2ccc(NC(=O)c3ccccc3)cc2C1=O	inactive
Cc1cc2nc3c(=O)[nH]c(=O)nc-3n(C[C@H](O)[C@H](O)[C@H](O)CO)c2cc1C	inactive
C[C@@H]1CN([C@H](C)CO)C(=O)c2cccc(NC(=O)C3CCOCC3)c2O[C@@H]1CN(C)C(=O)NC1CCCCC1	inactive
CC(C)C#Cc1cnc2c(c1)C(=O)N([C@H](C)CO)C[C@@H](C)[C@@H](CN(C)S(=O)(=O)c1cn(C)cn1)O2	inactive
Cn1cc(CN2CCC(C(=O)N[C@@H](c3ccc(F)cc3)c3ccc4ccccc4n3)CC2)c2ccccc21	active
C[C@@H]1CN([C@@H](C)CO)C(=O)Cc2cc(NC(=O)Nc3cccc4ccccc34)ccc2O[C@@H]1CN(C)Cc1ccccc1	active
Cc1noc(C)c1S(=O)(=O)Nc1ccc2c(c1)CC(=O)N([C@H](C)CO)C[C@H](C)[C@H](CN(C)S(=O)(=O)c1cccs1)O2	inactive

system: S. aureus RN4220; test: growth inhibition call (relative growth <= 0.2); settings: 50 µM

Compound	growth inhibition call
Nc1nc2nc[nH]c2c(=S)[nH]1	inactive
C[C@H]1CN([C@@H](C)CO)C(=O)c2c(c3ccccc3n2C)-c2ccccc2CO[C@H]1CN(C)C(=O)Nc1ccccc1	inactive
C[C@@H]1CN([C@H](C)CO)C(=O)Cc2cc(NS(=O)(=O)c3ccccc3)ccc2O[C@@H]1CN(C)CC1CC1	inactive
COc1ccc(S(=O)(=O)Nc2cccc3c2O[C@@H](CN(C)S(=O)(=O)c2ccccc2)[C@@H](C)CN([C@@H](C)CO)C3=O)cc1	inactive
C[C@@H]1CN([C@@H](C)CO)C(=O)c2cccc(NC(=O)c3ccc(-c4nccs4)cc3)c2O[C@H]1CN(C)CC1CCCCC1	inactive
C[C@H]1CN([C@@H](C)CO)C(=O)c2ccccc2-c2ccccc2CO[C@H]1CN(C)Cc1ccc(Oc2ccccc2)cc1	inactive
O=C(O)C[C@H]1C=C[C@@H](NC(=O)c2ccncc2)[C@H](CO)O1	inactive
C[C@H]1CN([C@@H](C)CO)C(=O)c2cc(C#Cc3cccnc3)cnc2O[C@@H]1CN(C)S(C)(=O)=O	inactive
C[C@H](CO)N1C[C@H](C)[C@@H](CN(C)C(=O)Nc2ccc(C(F)(F)F)cc2)Oc2ccc(NC(=O)Nc3ccccc3)cc2C1=O	inactive
C[C@@H]1CCCCO[C@H](CN(C)S(=O)(=O)c2ccc(Cl)cc2)[C@H](C)CN([C@H](C)CO)C(=O)c2cc(NC(=O)NC3CCCCC3)ccc2O1	inactive
CC/C=C/C(=O)N(C[C@@H]1CCCO1)[C@@H]1CC(C(=O)NCCO)=C[C@H](Oc2c(I)cc(CO)cc2OC)[C@H]1O	inactive
CCN(CC)c1ccc(N2CC=C[C@@]34O[C@@H]5/C=C\CCCOC(=O)[C@@H]5[C@H]3C(=O)N(CCCCCCO)[C@@H]4C2=O)cc1	inactive
COc1ccc(S(=O)(=O)N(C)C[C@H]2Oc3ccc(NC(=O)Nc4cccc5ccccc45)cc3C(=O)N([C@@H](C)CO)C[C@H]2C)cc1	inactive
C[C@@H]1CN([C@H](C)CO)C(=O)c2c(c3ccccc3n2C)-c2ccccc2CO[C@@H]1CN(C)C(=O)c1cc(Cl)cc(Cl)c1	inactive
COc1ccc(NC(=O)N(C)C[C@@H]2Oc3ncc(C#C[C@@H](C)O)cc3C(=O)N([C@@H](C)CO)C[C@@H]2C)cc1	inactive
CN1C(=O)CO[C@H]2CN(C(=O)NCc3cccnc3)C[C@@H]21	inactive
C[C@H]1CN([C@@H](C)CO)S(=O)(=O)c2ccc(C#Cc3cccc(F)c3)cc2O[C@H]1CN(C)S(=O)(=O)c1ccccc1F	inactive
CO[C@H]1O[C@H](COS(=O)(=O)O)[C@@H](O[C@@H]2O[C@@H](C(=O)O)[C@@H](OC)[C@H](O)[C@H]2OS(=O)(=O)O)[C@H](O)[C@H]1NS(=O)(=O)O	inactive
COC1(NC(=O)Cc2cccs2)C(=O)N2C(C(=O)[O-])=C(COC(N)=O)CSC21.[Na+] (centres undefined)	active
O=C(Cc1cccs1)N1c2ccccc2Sc2ccccc21	inactive

Compound	growth inhibition call
Cn1cnc(S(=O)(=O)N[C@@H]2CC[C@@H](CC(=O)NCC3CC3)O[C@@H]2CO)c1	inactive
O=S(=O)(NCC[C@H]1CC[C@H](NS(=O)(=O)c2ccccc2Cl)[C@@H](CO)O1)c1ccc(F)cc1	inactive
CC(C)NC(=O)N(C)C[C@@H]1OCCCC[C@H](C)Oc2ccc(NS(=O)(=O)c3cn(C)cn3)cc2C(=O)N([C@H](C)CO)C[C@@H]1C	inactive
O=C1NC2=C(C(=O)OC2)[C@H](c2ccccc2)N1	inactive
CN(C)CC(=O)N[C@@H]1C=C[C@H](CC(=O)NCCN2CCCCC2)O[C@@H]1CO	inactive
N[C@H](CCC(=O)O)C(=O)O	inactive
CO[C@@H]1CN(C)C(=O)c2cc(NC(=O)Nc3ccc(Cl)cc3)ccc2OC[C@@H](C)N(C(=O)Nc2c(C)noc2C)C[C@H]1C	inactive
COc1ccc(CN(C)C[C@H]2OCCCC[C@@H](C)Oc3ccc(NS(=O)(=O)c4ccc(F)cc4)cc3C(=O)N([C@@H](C)CO)C[C@@H]2C)cc1	inactive
C[C@H](CO)N1C[C@H](C)[C@H](CN(C)S(=O)(=O)c2ccccc2)Oc2ccc(NS(=O)(=O)c3cccs3)cc2CC1=O	inactive
C[C@@H]1CCCCO[C@@H](CN(C)Cc2ccccc2)[C@H](C)CN([C@H](C)CO)C(=O)c2cc(NC(=O)Cc3ccccc3)ccc2O1	inactive
CCS(=O)(=O)Nc1ccc2c(c1)C(=O)N(C)[C@H]1CC[C@H](CC(=O)N[C@@H]3CCN(Cc4ccccc4)C3)O[C@@H]1CO2	inactive
C=CC(C1=CC(=O)C(OC)=CC1=O)c1ccc(OC)cc1 (centres undefined)	inactive
COc1ccc(S(=O)(=O)Nc2cccc3c2O[C@H](CN(C)S(C)(=O)=O)[C@H](C)CN([C@@H](C)CO)C3=O)cc1	inactive
C[C@H](CO)N1C[C@H](C)[C@@H](CN(C)C(=O)c2ccccc2)OCCCC[C@H](C)Oc2ccc(NC(=O)c3ccccc3)cc2C1=O	inactive
Cc1cc2nc3c(=O)[nH]c(=O)nc-3n(C[C@H](O)[C@H](O)[C@H](O)CO)c2cc1C	inactive
C[C@@H]1CN([C@H](C)CO)C(=O)c2cccc(NC(=O)C3CCOCC3)c2O[C@@H]1CN(C)C(=O)NC1CCCCC1	inactive
CC(C)C#Cc1cnc2c(c1)C(=O)N([C@H](C)CO)C[C@@H](C)[C@@H](CN(C)S(=O)(=O)c1cn(C)cn1)O2	inactive
Cn1cc(CN2CCC(C(=O)N[C@@H](c3ccc(F)cc3)c3ccc4ccccc4n3)CC2)c2ccccc21	inactive
C[C@@H]1CN([C@@H](C)CO)C(=O)Cc2cc(NC(=O)Nc3cccc4ccccc34)ccc2O[C@@H]1CN(C)Cc1ccccc1	inactive
Cc1noc(C)c1S(=O)(=O)Nc1ccc2c(c1)CC(=O)N([C@H](C)CO)C[C@H](C)[C@H](CN(C)S(=O)(=O)c1cccs1)O2	inactive
